Data: the supplement of paper PMC8183993
Where a name gives a salt, the structure may show the parent alone. ± gives the standard deviation of the averaged measurements. The full ranking holds about 3,200 compounds; the median of “nuclei count (viability) relative to DMSO” is about 99, and the lowest 2% start at about 16. Some of the results follow.

test system: U2OS; test: nuclei count (viability) relative to DMSO (% of DMSO); higher = more viable cells; settings: 10 µM; 24 h
Experimental: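 Primary image-based screen in U2OS cells: compounds at 10 uM for 24 h, then a 1 h o-propargyl-puromycin (OPP) pulse, click labelling, and high-throughput microscopy. Mean cytoplasmic OPP intensity and nuclei count were normalised to DMSO wells within each plate (DMSO = 100) and averaged over triplicate plates.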

Point of comparison: `CC(=O)C1=C(O)[C@@H]2[C@H]3c4c[nH]c5cccc(c45)C[C@H]3C(C)(C)N2C1=O` [Cyclopiazonic Acid], nuclei count 90.3. Against it:
- CO/C1=C\C(C)=C\[C@@H](C)[C@@H](O)[C@@H](C)C/C(C)=C/C=C/[C@H](OC)[C@@H]([C@@H](C)[C@@H](O)[C@H](C)[C@@]2(O)C[C@@H](O)[C@H](C)[C@@H](C(C)C)O2)OC1=O [Bafilomycin A1] — lower, 79.2 ± 6.1
- N#Cc1nn(-c2c(Cl)cc(C(F)(F)F)cc2Cl)c(N)c1[S+]([O-])C(F)(F)F (centres undefined) [Fipronil] — higher, 92.8
- CC[N+](CC)(CCCNC1=CC(=O)C(NCCC[N+](CC)(CC)Cc2ccccc2)=CC1=O)Cc1ccccc1 [Benzoquinonium dibromide] — higher, 91
- C[N+]1(C)CCc2cc3c(cc2C1C1OC(=O)c2c1ccc1c2OCO1)OCO3 (single isomer, unassigned; (-)) [(-)-Bicuculline methobromide] — higher, 92.1
- C[C@H]1CCC/C=C/[C@@H]2C[C@H](O)C[C@H]2[C@H](O)/C=C/C(=O)O1 [Brefeldin A] — lower, 57.5 ± 2
- CC1=C(O)C(=O)C=C2C1=CC=C1[C@@]2(C)CC[C@@]2(C)[C@@H]3C[C@](C)(C(=O)O)CC[C@]3(C)CC[C@]12C [Celastrol] — lower, 18.9
- CC(=O)Oc1ccc(/C=C/c2cc(OC(C)=O)cc(OC(C)=O)c2)cc1 [Triacetylresveratrol] — lower, 73.1
- CCC(C)C1O[C@]2(C=C[C@@H]1C)C[C@@H]1CC(C/C=C(\C)[C@@H](OC3C[C@H](OC)[C@@H](OC4C[C@H](OC)[C@@H](O)[C@H](C)O4)[C@H](C)O3)[C@@H](C)/C=C/C=C3\COC4[C@H](O)C(C)=CC(C(=O)O1)[C@]34O)O2 (some centres undefined) [Avermectin B1a] — higher, 101
- c1cc(Cc2cnc[nH]2)ccn1 [Immethridine dihydrobromide] — higher, 92.3
- Oc1ccc2c3c1O[C@H]1c4[nH]c5c(c4C[C@@]4(O)[C@@H](C2)N(CC2CC2)CC[C@]314)C[C@@]1(O)[C@H]2Cc3ccc(O)c4c3[C@@]1(CCN2CC1CC1)[C@H]5O4 [nor-Binaltorphimine dihydrochloride] — higher, 99.1
- N.N.[Cl][Pt][Cl] [Cisplatin] — higher, 96.2
- OC1CCCCC1N1CCC(c2ccccc2)CC1 (racemic) [(±)-Vesamicol hydrochloride] — higher, 99.5
- CCCN1C[C@H](CSC)C[C@@H]2c3cccc4[nH]cc(c34)C[C@H]21 [Pergolide mesylate] — within error, 95.5 ± 5.6
- O=C1/C(=C/c2ccccc2)C[C@@]2(O)[C@H]3Cc4ccc(O)c5c4[C@@]2(CCN3CC2CC2)[C@H]1O5 [BNTX maleate] — lower, 3.38
- COc1ccc(C(=O)N2CCCC2=O)cc1 [Aniracetam] — within error, 96.1 ± 10
- Cc1ncc(CN2CC=C(c3ccccc3)CC2)c(N)n1 — higher, 99.5
- Cc1[nH]c2ccc(O)cc2c1CCN [2-Methyl-5-hydroxytryptamine hydrochloride] — higher, 96.7
- CC(C(=O)OC1CC2CCC(C1)N2C)c1ccc(Br)cc1 (centres undefined) [PG-9 maleate] — higher, 98.8
- O=C(O[C@H]1C[C@H]2CC[C@@H](C1)[N+]21CCCC1)C(O)(c1ccccc1)c1ccccc1 [Trospium chloride (Sanctura)] — higher, 99.6
- CC1(C)CCCC(C)(C)N1[O] — higher, 91.7
- CC[C@@H](C(N)=O)N1CCCC1=O [Levetiracetam] — higher, 103
- NCC(CS(=O)(=O)O)c1ccc(Cl)cc1 (centres undefined) [Saclofen] — higher, 108
- O=C(O)CCCc1ccc(N(CCCl)CCCl)cc1 [Chlorambucil] — lower, 80.5
- O=Cc1cn(Cc2ccc(Cl)cc2)c2ccccc12 [Oncrasin 1] — lower, 88.2
- CN(C)Cc1c[nH]c2ccccc12 [Gramine] — higher, 100
- COc1cc2c(cc1O)C(CCc1ccc(Cl)cc1)N(C)CC2 (centres undefined) — higher, 104
- Nc1ccncc1 [4-Aminopyridine] — within error, 92.4 ± 6.5
- COc1ccc(-n2nc(C(F)(F)F)cc2-c2ccc(Cl)cc2)cc1 — higher, 101
- C[N+]1(C)CCOC(O)(c2ccc(-c3ccc(C4(O)C[N+](C)(C)CCO4)cc3)cc2)C1 (centres undefined) [Hemicholinium bromide] — higher, 98.8
- C[C@]12CCC(=O)C=C1CC[C@@H]1[C@@H]2C(=O)C[C@]2(C)C(=O)CC[C@@H]12 [Adrenosterone] — higher, 103
- O=P(O)(O)Cc1ccccc1 [Benzylphosphonic acid] — higher, 106
- CC(=O)N[C@H]1[C@@H](O[C@@H]2O[C@H](CC(O)[C@H]3O[C@@H](n4ccc(=O)[nH]c4=O)[C@H](O)[C@@H]3O)[C@H](O)[C@H](O)[C@H]2NC(=O)/C=C/CC(C)C)O[C@H](CO)[C@@H](N)[C@@H]1O (some centres undefined) [Tunicamycin] — lower, 28.5
- CC(C)[C@@]1(O)[C@@H](OC(=O)c2ccc[nH]2)[C@@]2(O)[C@@]3(C)C[C@]4(O)O[C@@]5([C@H](O)[C@@H](C)CC[C@]35O)[C@@]2(O)[C@@]14C [Ryanodine] — higher, 100
- COc1ccc(CNC(=O)/C=C/c2ccc3[nH]cc(CCN(C)C)c3c2)cc1 — higher, 104
- C[CH2][Hg][S]c1ccccc1C(=O)[O-].[Na+] [Thimerosal] — lower, 5.97
- C[N+](C)(C)CC#CCN1CCCC1=O [Oxotremorine M] — lower, 87.3
- CC(=O)C1=C(O)[C@@H]2[C@H]3c4c[nH]c5cccc(c45)C[C@H]3C(C)(C)N2C1=O [Cyclopiazonic acid] — lower, 75.5
- CC(C)[C@@]1(NC(=O)[C@@H]2C[C@@H]3c4cccc5[nH]cc(c45)C[C@H]3N(C)C2)O[C@@]2(O)[C@@H]3CCCN3C(=O)[C@H](Cc3ccccc3)N2C1=O [Dihydroergocristine mesylate] — higher, 102
- CN1CCC(c2c[nH]c3ccc(O)cc23)CC1 — higher, 105
- CC(N)Cc1c[nH]c2ccc(OCc3cccs3)cc12 (centres undefined) [BW 723C86 hydrochloride] — higher, 97.9
- C1=C2CCCN[C@H]2[C@@H]2C[C@H]1[C@H]1CCCCN1C2 [Aloperine] — higher, 101
- CCN[C@@H](C)Cc1cccc(C(F)(F)F)c1 [Dexfenfluramine hydrochloride] — higher, 104
- Cn1cnc(CCN)c1 [N _-Methylhistamine dihydrochloride] — higher, 99.4
